Source: paper PMC8866485, “Cell surface nucleolin is a novel ADAMTS5 receptor mediating endothelial cell apoptosis” (Cell Death & Disease, 2022)
No constants are given. Whether binding was seen depends on the method and setting. For part of these data: Binding seen in cells or lysates may run through a third protein. Some binding calls cover weakened binding; strength is not graded here. Sequences can lack the tags named with a protein.

The chains behind the UniProt entries cited, without tags or fusion partners. Where a name states a change or a piece, a line headed by the entry shows the natural chain unless it says otherwise. A line that says so, or that is headed by a name, gives the form on record, which may keep a tag or linker. Residues count along the entry.
UniProt P19338: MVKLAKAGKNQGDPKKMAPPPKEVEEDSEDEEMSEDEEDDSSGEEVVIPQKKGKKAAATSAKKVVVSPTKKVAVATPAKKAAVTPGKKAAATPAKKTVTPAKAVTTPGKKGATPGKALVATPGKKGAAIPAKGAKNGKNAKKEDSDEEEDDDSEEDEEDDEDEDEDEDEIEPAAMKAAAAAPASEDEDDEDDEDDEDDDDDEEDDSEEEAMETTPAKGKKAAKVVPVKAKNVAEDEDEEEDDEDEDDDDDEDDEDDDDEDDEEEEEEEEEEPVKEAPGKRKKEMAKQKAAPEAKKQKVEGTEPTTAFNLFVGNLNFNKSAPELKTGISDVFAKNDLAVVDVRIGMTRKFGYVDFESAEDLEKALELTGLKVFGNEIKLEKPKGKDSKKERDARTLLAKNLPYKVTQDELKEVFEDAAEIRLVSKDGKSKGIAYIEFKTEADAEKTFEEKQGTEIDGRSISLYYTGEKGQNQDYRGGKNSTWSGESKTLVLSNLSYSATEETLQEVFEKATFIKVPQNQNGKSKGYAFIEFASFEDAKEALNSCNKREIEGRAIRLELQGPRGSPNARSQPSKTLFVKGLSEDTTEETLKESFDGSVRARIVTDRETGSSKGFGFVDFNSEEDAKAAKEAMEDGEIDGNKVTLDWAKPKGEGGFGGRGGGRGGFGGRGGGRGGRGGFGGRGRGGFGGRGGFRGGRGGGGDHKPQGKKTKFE
FLAG-tagged NCLΔGAR (1-652): residues 1-652 of P19338
FLAG-tagged NCLΔC (1-269): residues 1-269 of P19338
FLAG-tagged NCLΔN (270-710): residues 270-710 of P19338
FLAG-tagged NCL-RBD (270-652): residues 270-652 of P19338
UniProt Q14764: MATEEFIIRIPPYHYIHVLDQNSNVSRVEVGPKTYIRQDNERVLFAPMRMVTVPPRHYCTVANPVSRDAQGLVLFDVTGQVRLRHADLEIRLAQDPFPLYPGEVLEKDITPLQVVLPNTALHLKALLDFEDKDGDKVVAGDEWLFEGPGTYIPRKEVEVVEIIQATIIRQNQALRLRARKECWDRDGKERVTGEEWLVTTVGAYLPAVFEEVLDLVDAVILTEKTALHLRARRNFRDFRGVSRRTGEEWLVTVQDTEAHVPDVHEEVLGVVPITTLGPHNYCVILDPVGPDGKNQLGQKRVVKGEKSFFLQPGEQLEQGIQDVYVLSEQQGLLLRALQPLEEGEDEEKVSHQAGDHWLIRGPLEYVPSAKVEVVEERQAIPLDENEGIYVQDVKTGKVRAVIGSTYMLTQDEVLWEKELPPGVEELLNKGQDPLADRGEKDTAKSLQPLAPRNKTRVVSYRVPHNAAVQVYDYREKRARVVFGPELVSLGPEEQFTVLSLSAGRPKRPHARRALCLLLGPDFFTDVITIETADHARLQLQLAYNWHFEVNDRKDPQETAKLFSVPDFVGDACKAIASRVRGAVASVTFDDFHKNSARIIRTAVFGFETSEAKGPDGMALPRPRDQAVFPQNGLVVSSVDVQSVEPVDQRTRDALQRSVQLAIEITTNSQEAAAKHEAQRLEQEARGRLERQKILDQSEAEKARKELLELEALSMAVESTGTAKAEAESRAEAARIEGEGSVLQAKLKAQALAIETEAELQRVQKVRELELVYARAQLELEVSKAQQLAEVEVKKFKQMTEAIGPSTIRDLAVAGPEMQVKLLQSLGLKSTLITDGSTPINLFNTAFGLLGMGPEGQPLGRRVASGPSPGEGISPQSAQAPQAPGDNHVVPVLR

Assays:
[1] = target: Endogenous nucleolin (NCL) of HUVECs (human (endogenous in HUVEC)) (UniProt P19338); experiment: ELISA; cellular ELISA: fixed, non-permeabilised HUVECs treated with TS5-p45 at room temperature for 2 h; anti-His detection; untransfected, siCtrl- and siNCL-transfected cells; only the binder purified
[2] = target: Recombinant human MVP (rhMVP) (human) (UniProt Q14764); experiment: co-IP; two-way co-IP (both directions) with purified recombinant proteins; both purified
[3] = target: Endogenous nucleolin (NCL) of HUVECs (human (endogenous in HUVEC)) (UniProt P19338); experiment: flow cytometry on cells; unfixed, non-permeabilised HUVECs incubated with TS5-p45 at 4 C for 4 h; anti-His-FITC detection; untransfected, siCtrl- and siNCL-transfected cells; only the binder purified
[4] = target: FLAG-tagged NCLΔC (1-269) (UniProt P19338); experiment: condition: 1 ug TS5-p45/reaction with 2 mg WCL/reaction; co-IP; FLAG-tagged NCL or truncates (2 mg HEK293T WCL/reaction) incubated with His-tagged TS5-p45 (1 ug/reaction) at 4 C overnight; anti-FLAG M2 affinity gel; anti-FLAG and anti-His blots; only the binder purified
[5] = target: FLAG-tagged full-length NCL (NCL-FL 1-710) (UniProt P19338); experiment: co-IP; FLAG-tagged NCL or truncates (2 mg HEK293T WCL/reaction) incubated with His-tagged TS5-p45 (1 ug/reaction) at 4 C overnight; anti-FLAG M2 affinity gel; anti-FLAG and anti-His blots; only the binder purified
[6] = target: FLAG-tagged NCLΔN (270-710) (UniProt P19338); experiment: as above
[7] = target: FLAG-tagged NCLΔGAR (1-652) (UniProt P19338); experiment: as above
[8] = target: FLAG-tagged NCL-RBD (270-652) (UniProt P19338); experiment: as above
[9] = target: Endogenous nucleolin (NCL) of HUVECs (human (endogenous in HUVEC)) (UniProt P19338); experiment: pull-down; surface proteins of intact HUVECs biotinylated (Sulfo-NHS-LC-Biotin), cells treated with 250 nM TS5-p45 for 1 h; streptavidin magnetic beads on WCL and nuclear fractions; blots for NCL and His; also after 3 mM CaCl2 or 5 mM EGTA pre-treatment; only the binder purified

binding [1]: binds
binding [2]: no binding
binding [3]: binds
binding [4]: no binding
binding [5]: binds
binding [6]: binds
binding [7]: binds
binding [8]: binds
binding [9]: binds
B1: Recombinant human TS5-p45 (C-terminal His-tagged, Ser262-Pro622 truncate of ADAMTS5) (domain or fragment, UniProt Q9UNA0 262-622, looked up)
chain: SISRARQVELLLVADASMARLYGRGLQHYLLTLASIANRLYSHASIENHIRLAVVKVVVLGDKDKSLEVSKNAATTLKNFCKWQHQHNQLGDDHEEHYDAAILFTREDLCGHHSCDTLGMADVGTICSPERSCAVIEDDGLHAAFTVAHEIGHLLGLSHDDSKFCEETFGSTEDKRLMSSILTSIDASKPWSKCTSATITEFLDDGHGNCLLDLPRKQILGPEELPGQTYDATQQCNLTFGPEYSVCPGMDVCARLWCAVVRQGQMVCLTKKLPAVEGTPCGKGRICLQGKCVDKTKKKYYSTSSHGNWGSWGSWGQCSRSCGGGVQFAYRHCNNPAPRNNGRYCTGKRAIYRSCSLMPCP
notes: ADAMTS5 (A Disintegrin and Metalloproteinase with Thrombospondin Motifs 5, aggrecanase-2), human, residues Ser262-Pro622; also called 45 kDa truncate of ADAMTS5; source: bought: R&D Systems (2198-AD-01M); not shown: His tag, C-terminal, kept
